The results in this text go back to US20230250147A1 (Sanofi, published 2023).

T1: Mouse GLP-1R (mouse, UniProt O35659 22-463)
T1 sequence (looked up): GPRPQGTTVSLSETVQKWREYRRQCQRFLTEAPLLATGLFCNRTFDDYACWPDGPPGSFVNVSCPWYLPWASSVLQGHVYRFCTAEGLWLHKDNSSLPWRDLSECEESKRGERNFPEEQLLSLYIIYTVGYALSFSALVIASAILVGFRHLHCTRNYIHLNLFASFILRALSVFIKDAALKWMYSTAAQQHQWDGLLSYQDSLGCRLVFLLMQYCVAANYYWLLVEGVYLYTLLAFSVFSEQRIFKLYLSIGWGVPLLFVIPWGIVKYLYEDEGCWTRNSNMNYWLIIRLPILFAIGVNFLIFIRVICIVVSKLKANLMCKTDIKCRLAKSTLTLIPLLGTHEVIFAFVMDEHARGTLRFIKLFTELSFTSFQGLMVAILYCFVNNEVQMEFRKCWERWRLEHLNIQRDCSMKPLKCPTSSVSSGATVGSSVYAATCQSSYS

B1: GLP-1RA/FGF21 Fc fusion protein SEQ ID NO: 72 (Fc fusion)
chain: HGEGTFTSDKSKQLEKRLFRLFIEWLIAGGHSSGKPPPKGGGGGGGSGGGGSGGGGSA[… human IgG4 Fc with changes …]GGGSGSAHPIPDSSPLLQFGGQVRQRYLYTDDACQTEAHLEIREDGTVGGAADQSPESLLQLKALKPGVIQILGVKTSRFLCQRPDGALYGSLHFDPEACSFRELLLEDGYNVYQSEAHGLPLHLPGCKSPHRDPAPRGPARFLPLPGLPPAPPEPPGILAPQPPDVGSSDPLSMVGSQGRSPSYAS
B2: GLP-1RA/FGF21 Fc fusion protein SEQ ID NO: 187 (Fc fusion)
chain: HGEGTFTSDLSKQLAERLVRLFIEWLIKGGHSSGKPPPKGGGGGGGSGGGGSGGGGSA[… human IgG4 Fc with changes …]GGGSGSAHPIPDSSPLLQFGGQVRQRYLYTDDACQTEAHLEIREDGTVGGAADQSPESLLQLKALKPGVIQILGVKTSRFLCQRPDGALYGSLHFDPEACSFRELLLEDGYNVYQSEAHGLPLHLPGCKSPHRDPAPRGPARFLPLPGLPPAPPEPPGILAPQPPDVGSSDPLSMVGSQGRSPSYAS
B3: GLP-1RA/FGF21 Fc fusion protein SEQ ID NO: 190 (Fc fusion)
chain: HGEGTFTSDKSKQLEKELVRLFYEWLKAGGHSKQKPPPKGGGGGGGSGGGGSGGGGSA[… human IgG4 Fc with changes …]GGGSGSAHPIPDSSPLLQFGGQVRQRYLYTDDACQTEAHLEIREDGTVGGAADQSPESLLQLKALKPGVIQILGVKTSRFLCQRPDGALYGSLHFDPEACSFRELLLEDGYNVYQSEAHGLPLHLPGCKSPHRDPAPRGPARFLPLPGLPPAPPEPPGILAPQPPDVGSSDPLSMVGSQGRSPSYAS
B4: GLP-1RA/FGF21 Fc fusion protein SEQ ID NO: 74 (Fc fusion)
chain: HGEGTFTSDKSKQLEKRLVILFIEWLIAGGHSSGKPPPKGGGGGGGSGGGGSGGGGSA[… human IgG4 Fc with changes …]GGGSGSAHPIPDSSPLLQFGGQVRQRYLYTDDACQTEAHLEIREDGTVGGAADQSPESLLQLKALKPGVIQILGVKTSRFLCQRPDGALYGSLHFDPEACSFRELLLEDGYNVYQSEAHGLPLHLPGCKSPHRDPAPRGPARFLPLPGLPPAPPEPPGILAPQPPDVGSSDPLSMVGSQGRSPSYAS
B5: GLP-1RA/FGF21 Fc fusion protein SEQ ID NO: 205 (Fc fusion)
chain: HGEGTFTSDLSKQLEKELVRLFYEWLIAGGHKSQKPPPKGGGGGGGSGGGGSGGGGSA[… human IgG4 Fc with changes …]GGGSGSAHPIPDSSPLLQFGGQVRQRYLYTDDACQTEAHLEIREDGTVGGAADQSPESLLQLKALKPGVIQILGVKTSRFLCQRPDGALYGSLHFDPEACSFRELLLEDGYNVYQSEAHGLPLHLPGCKSPHRDPAPRGPARFLPLPGLPPAPPEPPGILAPQPPDVGSSDPLSMVGSQGRSPSYAS
B6: GLP-1RA/FGF21 Fc fusion protein SEQ ID NO: 81 (Fc fusion)
chain: HGEGTFTSDKSKQLEKRLVRLFIYWLIAGGHSSGKPPPKGGGGGGGSGGGGSGGGGSA[… human IgG4 Fc with changes …]GGGSGSAHPIPDSSPLLQFGGQVRQRYLYTDDACQTEAHLEIREDGTVGGAADQSPESLLQLKALKPGVIQILGVKTSRFLCQRPDGALYGSLHFDPEACSFRELLLEDGYNVYQSEAHGLPLHLPGCKSPHRDPAPRGPARFLPLPGLPPAPPEPPGILAPQPPDVGSSDPLSMVGSQGRSPSYAS
B7: GLP-1RA/FGF21 Fc fusion protein SEQ ID NO: 196 (Fc fusion)
chain: HGEGTFTSDLSKQLEKELVRLFYEWLINGGPSSGKPPPKGGGGGGGSGGGGSGGGGSA[… human IgG4 Fc with changes …]GGGSGSAHPIPDSSPLLQFGGQVRQRYLYTDDACQTEAHLEIREDGTVGGAADQSPESLLQLKALKPGVIQILGVKTSRFLCQRPDGALYGSLHFDPEACSFRELLLEDGYNVYQSEAHGLPLHLPGCKSPHRDPAPRGPARFLPLPGLPPAPPEPPGILAPQPPDVGSSDPLSMVGSQGRSPSYAS
B8: GLP-1RA/FGF21 Fc fusion protein SEQ ID NO: 195 (Fc fusion)
chain: HGEGTFTSDLSKQLEKELVRLFYEWLINGGHSKGKPPPKGGGGGGGSGGGGSGGGGSA[… human IgG4 Fc with changes …]GGGSGSAHPIPDSSPLLQFGGQVRQRYLYTDDACQTEAHLEIREDGTVGGAADQSPESLLQLKALKPGVIQILGVKTSRFLCQRPDGALYGSLHFDPEACSFRELLLEDGYNVYQSEAHGLPLHLPGCKSPHRDPAPRGPARFLPLPGLPPAPPEPPGILAPQPPDVGSSDPLSMVGSQGRSPSYAS
B9: GLP-1RA/FGF21 Fc fusion protein SEQ ID NO: 193 (Fc fusion)
chain: HGEGTFTSDLSKQLEKELVRLFYEWLINGGHSSQKPPPKGGGGGGGSGGGGSGGGGSA[… human IgG4 Fc with changes …]GGGSGSAHPIPDSSPLLQFGGQVRQRYLYTDDACQTEAHLEIREDGTVGGAADQSPESLLQLKALKPGVIQILGVKTSRFLCQRPDGALYGSLHFDPEACSFRELLLEDGYNVYQSEAHGLPLHLPGCKSPHRDPAPRGPARFLPLPGLPPAPPEPPGILAPQPPDVGSSDPLSMVGSQGRSPSYAS
B10: GLP-1RA/FGF21 Fc fusion protein SEQ ID NO: 201 (Fc fusion)
chain: HGEGTFTSDLSKQLEKELVRLFYEWLIKGGHSSQKPPPKGGGGGGGSGGGGSGGGGSA[… human IgG4 Fc with changes …]GGGSGSAHPIPDSSPLLQFGGQVRQRYLYTDDACQTEAHLEIREDGTVGGAADQSPESLLQLKALKPGVIQILGVKTSRFLCQRPDGALYGSLHFDPEACSFRELLLEDGYNVYQSEAHGLPLHLPGCKSPHRDPAPRGPARFLPLPGLPPAPPEPPGILAPQPPDVGSSDPLSMVGSQGRSPSYAS
B11: GLP-1RA/FGF21 Fc fusion protein SEQ ID NO: 203 (Fc fusion)
chain: HGEGTFTSDLSKQLEKELVRLFYEWLIKGGHKSGKPPPKGGGGGGGSGGGGSGGGGSA[… human IgG4 Fc with changes …]GGGSGSAHPIPDSSPLLQFGGQVRQRYLYTDDACQTEAHLEIREDGTVGGAADQSPESLLQLKALKPGVIQILGVKTSRFLCQRPDGALYGSLHFDPEACSFRELLLEDGYNVYQSEAHGLPLHLPGCKSPHRDPAPRGPARFLPLPGLPPAPPEPPGILAPQPPDVGSSDPLSMVGSQGRSPSYAS
B12: GLP-1RA/FGF21 Fc fusion protein SEQ ID NO: 204 (Fc fusion)
chain: HGEGTFTSDLSKQLEKELVRLFYEWLIKGGHSKGKPPPKGGGGGGGSGGGGSGGGGSA[… human IgG4 Fc with changes …]GGGSGSAHPIPDSSPLLQFGGQVRQRYLYTDDACQTEAHLEIREDGTVGGAADQSPESLLQLKALKPGVIQILGVKTSRFLCQRPDGALYGSLHFDPEACSFRELLLEDGYNVYQSEAHGLPLHLPGCKSPHRDPAPRGPARFLPLPGLPPAPPEPPGILAPQPPDVGSSDPLSMVGSQGRSPSYAS

The first assay addresses T1, Mouse GLP-1R. The experiment in a line: cell-based or functional assay.
In the case of B1, the “HTRF cAMP EC50” value turned out to be 0.0775 nM.
B2: the “HTRF cAMP EC50” value was 0.0675 nM.
The same measure, in the same setting: as for B3, the figure is 0.479 nM.
Still for that read-out and setting: as for B4, the figure is 0.0183 nM; as for B5, 0.127 nM; as for B6, 0.0674 nM.
On to B7, for which the “HTRF cAMP EC50” value stood at 0.0317 nM.
Consider B8, for which the “HTRF cAMP EC50” value worked out at 0.0566 nM.
The same measure, in the same setting: as for B9, the figure is 0.0713 nM.
B10: the “HTRF cAMP EC50” value amounted to 0.0698 nM.
Turning to B11, the “HTRF cAMP EC50” value was found to be 0.0892 nM.
The same measure, in the same setting: for B12 the value was 0.0657 nM.

In a further assay the target is human glucagon-like peptide-1 (GLP-1) receptor (human, UniProt P43220 24-463). Briefly: cell-based or functional assay.
Take B1: the “HTRF cAMP EC50” value was determined as 0.0204 nM.
In the case of B2, the “HTRF cAMP EC50” value came to 0.0674 nM.
On the same count and under the same terms, for B3 the value was 0.152 nM.
The same measure, in the same setting: as for B4, the figure is 0.0135 nM; as for B5, 0.131 nM; as for B6, 0.0499 nM.
On the same count and under the same terms, for B7 the value was 0.0753 nM; for B8, 0.0745 nM.
B9: the “HTRF cAMP EC50” value was 0.108 nM.
Same read-out and setting: as for B10, the figure is 0.101 nM; as for B11, 0.0969 nM.
The same measure, in the same setting: as for B12, the figure is 0.103 nM.

For another assay, the target named is Monkey GLP-1R (monkey). The experiment in a line: cell-based or functional assay.
For B1, the “HTRF cAMP EC50” value worked out at 0.025 nM.
On the same count and under the same terms, as for B2, the figure is 0.0632 nM; as for B3, 0.239 nM; as for B4, 0.0137 nM.
Still for that read-out and setting: as for B5, the figure is 0.113 nM; as for B6, 0.0494 nM.
In the case of B7, the “HTRF cAMP EC50” value stood at 0.127 nM.
For B8, the “HTRF cAMP EC50” value was determined as 0.0718 nM.
B9: the “HTRF cAMP EC50” value is 0.151 nM.
Regarding B10, the “HTRF cAMP EC50” value worked out at 0.0986 nM.
B11: the “HTRF cAMP EC50” value turned out to be 0.102 nM.
Turning to B12, the “HTRF cAMP EC50” value is 0.0935 nM.
